SMILES strings stand for the structures. This is one part of the list. Repeats are few or missing, and single values can be far off.
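Also: cells treated in 1,536-well plates, then fixed and DAPI-stained, with nuclei counted from automated high-throughput microscope images.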

For the assay, the system named is A2058. Briefly: cell count relative to DMSO control; melanoma cells; higher = more viable cells. Conditions: library dose: standard library concentration; 72 h.
Turning to `CN(c1ncccc1CNc1nc(Nc2ccc3c(c2)CC(=O)N3)ncc1C(F)(F)F)S(C)(=O)=O` + O=C1NC(=O)/C(=C/c2ccc(-c3ccc(F)cc3O)o2)S1 [AS252424] (first compound 0.4 µM, partner dose 5 µM), the cell count was 81.5%.
Next, `C=C(c1ccc(C(=O)O)cc1)c1cc2c(cc1C)C(C)(C)CCC2(C)C` [Bexarotene] + CCN(CC)CCCCNc1ncc2cc(-c3cc(OC)cc(OC)c3)c(NC(=O)NC(C)(C)C)nc2n1 [PD173074] (first compound 10 µM, partner dose 0.5 µM): 109%; `NC1(c2ccc(-c3nc4ccn5c(=O)[nH]nc5c4cc3-c3ccccc3)cc2)CCC1` + CC(C)CCN1c2nc(Nc3cc(F)c(O)c(F)c3)ncc2N(C)C(=O)C1C [BID1870] (first compound 2 µM, partner dose 1 µM): 63%.
Next, `C=C(c1ccc(C(=O)O)cc1)c1cc2c(cc1C)C(C)(C)CCC2(C)C` [Bexarotene] + Cn1c(Nc2ccc(C(F)(F)F)cc2)nc2cc(Oc3ccnc(-c4ncc(C(F)(F)F)[nH]4)c3)ccc21 [CHIR265] (first compound 10 µM, partner dose 0.4 µM): 72.4%; `C=C(c1ccc(C(=O)O)cc1)c1cc2c(cc1C)C(C)(C)CCC2(C)C` [Bexarotene] + O=S(=O)(c1ccccc1)N(CC(F)(F)F)c1ccc(C(O)(C(F)(F)F)C(F)(F)F)cc1 [T0901317] (first compound 10 µM, partner dose 7 µM): 96.1%; `CS(=O)(=O)c1ccc(C(=O)Nc2ccc(Cl)c(-c3ccccn3)c2)c(Cl)c1` [vismodegib] + O=C(Nc1ccccc1)c1cc([N+](=O)[O-])ccc1Cl [GW9662] (first compound 5 µM, partner dose 10 µM): 89.5%.
The figure for `C=C(c1ccc(C(=O)O)cc1)c1cc2c(cc1C)C(C)(C)CCC2(C)C` [Bexarotene] + CC(C)(C)c1cnc(CSc2cnc(NC(=O)C3CCNCC3)s2)o1 [SNS-032] (first compound 10 µM, partner dose 0.05 µM) is 109%; for `C=C(c1ccc(C(=O)O)cc1)c1cc2c(cc1C)C(C)(C)CCC2(C)C` [Bexarotene] + CC(C)CCN1c2nc(Nc3cc(F)c(O)c(F)c3)ncc2N(C)C(=O)C1C [BID1870] (first compound 10 µM, partner dose 1 µM) it is 102%.
`NC1(c2ccc(-c3nc4ccn5c(=O)[nH]nc5c4cc3-c3ccccc3)cc2)CCC1` + COc1ccc(COc2ccc(Cc3cnc(N)nc3N)cc2OC)cc1 [GW2580] (first compound 2 µM, partner dose 5 µM) returned a cell count of 64.6%.
Next, `CS(=O)(=O)c1ccc(C(=O)Nc2ccc(Cl)c(-c3ccccn3)c2)c(Cl)c1` [vismodegib] + O=C(O)[C@@H]1[O][Sb](=[O])([O][Sb]2(=[O])[O][C@H]([C@H](O)CO)[C@H](O)[C@H](C(=O)O)[O]2)[O][C@H]([C@H](O)CO)[C@@H]1O [stibogluconate] (first compound 5 µM, partner dose 10 µM): 82%.
Next, `CS(=O)(=O)c1ccc(C(=O)Nc2ccc(Cl)c(-c3ccccn3)c2)c(Cl)c1` [vismodegib] + Oc1nc(-c2ccc(C(F)(F)F)cc2)nc2c1CSCC2 [XAV939] (first compound 5 µM, partner dose 10 µM): 84.4%.
The molecule `CCCS(=O)(=O)Nc1ccc(F)c(C(=O)c2c[nH]c3ncc(Cl)cc23)c1F` + CC(C)(C)c1cnc(CSc2cnc(NC(=O)C3CCNCC3)s2)o1 [SNS-032] (first compound 0.4 µM, partner dose 0.05 µM) registered a cell count of 73.4%.
`CN(c1ncccc1CNc1nc(Nc2ccc3c(c2)CC(=O)N3)ncc1C(F)(F)F)S(C)(=O)=O` + Cn1c(=O)n(-c2ccc(C(C)(C)C#N)cc2)c2c3cc(-c4cnc5ccccc5c4)ccc3ncc21 [NVP-BEZ235] (first compound 0.4 µM, partner dose 0.02 µM): the cell count was determined as 43.3%.
The figure for `NC1(c2ccc(-c3nc4ccn5c(=O)[nH]nc5c4cc3-c3ccccc3)cc2)CCC1` + NC(=O)Nc1cc(-c2cccc(F)c2)sc1C(=O)N[C@H]1CCCNC1 [AZD7762] (first compound 2 µM, partner dose 0.1 µM) is 74.1%.

The values above are taken from the supplement of paper PMC4604168 (melanoma cell lines).
